Data: PubChem BioAssay AID1030 (National Center for Advancing Translational Sciences (NCATS), 2008)
In all, about 220,000 compounds went through this assay and about 16,000 (7.3%) were called active. The shares of active, inactive and inconclusive entries below differ from those in the screen. Calls come from the whole dose curve; as a rule, active = well fitted inhibition curve with a large enough effect (not every such curve was filed as active); inconclusive = small, poorly fitted or top-dose-only effect, or another doubt; inactive = no such curve, though single readings can be large or run the other way. Potencies of inconclusive entries are doubtful fits and often do not repeat.

The molecules below were run against Aldehyde dehydrogenase 1A1 (Homo sapiens) (UniProt P00352) (assay: qHTS Assay for Inhibitors of Aldehyde Dehydrogenase 1 (ALDH1A1)). Details: Purified ALDH1A1, NADH fluorescence, propionaldehyde substrate; series mostly up to 75.3 µM; activity, negative = inhibition: at the top concentration.
Sequence of UniProt P00352 (P00352 whole entry, looked up): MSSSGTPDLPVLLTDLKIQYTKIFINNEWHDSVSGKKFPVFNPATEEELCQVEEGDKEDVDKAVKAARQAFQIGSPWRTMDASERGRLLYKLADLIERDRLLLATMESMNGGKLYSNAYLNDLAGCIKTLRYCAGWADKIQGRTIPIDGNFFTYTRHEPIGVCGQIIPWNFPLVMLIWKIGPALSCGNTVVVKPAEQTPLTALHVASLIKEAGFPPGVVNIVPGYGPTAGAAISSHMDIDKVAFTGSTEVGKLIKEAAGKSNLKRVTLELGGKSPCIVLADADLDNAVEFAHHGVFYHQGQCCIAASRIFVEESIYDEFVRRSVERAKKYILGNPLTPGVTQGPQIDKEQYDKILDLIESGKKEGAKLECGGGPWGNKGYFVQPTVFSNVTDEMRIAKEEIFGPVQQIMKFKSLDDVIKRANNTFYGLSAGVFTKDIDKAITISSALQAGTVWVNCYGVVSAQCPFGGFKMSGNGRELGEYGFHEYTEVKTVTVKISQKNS
Potency is the fitted concentration of half-maximal effect; tags give direction and shape of the fitted curve.
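Throughout, for activity, negative = inhibition: plate controls were no enzyme wells and a reference inhibitor.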

activity, negative = inhibition, inactive:
COc1ccccc1N1CCN(C(=O)c2ccc(Cl)c(S(=O)(=O)N3CCCC3)c2)CC1 0.0267%
Cc1nn(CC(=O)N/N=C/c2ccc(F)cc2)c(C)c1[N+](=O)[O-] 8.02%
CCOc1ccc(-n2cc(C(=O)N3CCCCCC3)c3cc(OC)c(OC)cc3c2=O)cc1 5.95%
CC(c1ccon1)N(C)C(=O)CCc1nnc(CCCCc2ccccc2)o1 (stereo unspecified) -9.71%

Potency, inconclusive:
COc1ccc(-c2nn(-c3ccccc3)cc2/C=N/NC(=O)c2cccc(S(=O)(=O)Nc3ccccc3OC)c2)cc1 28.2 µM [inhibitor, partial curve]
CC(=O)Nc1cccc(-c2nc3ccc(NC(C)=O)cc3[nH]2)c1 25.1 µM [inhibitor, partial curve]
CCN1CCSc2ccc(C(=O)Nc3ccc(NC(C)=O)cc3)cc21 35.5 µM [inhibitor, single point]
Cc1cc(C(=O)Nc2c(F)cc(F)cc2Br)c(C)o1 8.91 µM [inhibitor, single point]
Nc1ccc2nc(SCC(=O)Nc3ccc(N4CCOCC4)c(Cl)c3)sc2c1 39.8 µM [inhibitor, single point]
Nc1nsnc1C(=O)NCCO 39.8 µM [inhibitor, single point]
CCOc1ccc(NC2c3ccccc3C(=O)N2c2ccc(Cl)cn2)cc1 (stereo unspecified) 25.1 µM [inhibitor, single point]
Cc1ccccc1-c1ncc(CN2CCC(CO)(CCCc3ccccc3)CC2)cn1 8.91 µM [inhibitor, partial curve]
C=CCn1c(=O)c(C#N)cc2c(=O)n3ccccc3nc21 28.2 µM [inhibitor, partial curve]

Potency, active:
O=S(=O)(Nc1ccc(Oc2ncccn2)c(Cl)c1)c1ccc(F)cc1 10 µM
COC(=O)C(=Nc1ccccc1)/C(C(=O)C(=O)N(C)c1ccccc1)=C(\O)c1ccc(Cl)cc1 25.1 µM
COc1ccc(N=c2oc3c(OC)cccc3cc2C(=O)NCc2ccco2)cc1OC 0.355 µM
CNC(=S)NCc1ccc2[nH]c3c(c2c1)CCCC3 25.1 µM
Oc1ccc(N2CCN(C(=S)NCc3ccccc3)CC2)cc1 20 µM
CCN1CCCC1CN(Cc1cc2ccc(C)cc2[nH]c1=O)C(=S)Nc1ccc(OC)cc1OC (stereo unspecified) 20 µM
C=CCN(CC=C)C(=S)Nc1ccc2nsnc2c1 11.2 µM
CCCCn1cnc2c(sc3nc4c(cc32)CSC(C)(C)C4)c1=O 1.12 µM
